# In PubChem BioAssay AID1030 (National Center for Advancing Translational Sciences (NCATS), 2008):
# Hit rate of the full screen: of about 220,000 compounds, about 16,000 (7.3%) were called active. Inconclusive means that the source gave no clear call. Such entries were picked first, then a sample of the others. Calls follow the shape of the dose curve; as a rule, active = well fitted inhibition curve with a large enough effect (not every such curve was filed as active); inconclusive = small, poorly fitted or top-dose-only effect, or another doubt; inactive = no such curve, though single readings can be large or run the other way. No potency is given beside an inconclusive call; the fits are too rough.
# Molecular target: Aldehyde dehydrogenase 1A1 (Homo sapiens) (UniProt P00352)
# Sequence of UniProt P00352 (P00352 whole entry, looked up): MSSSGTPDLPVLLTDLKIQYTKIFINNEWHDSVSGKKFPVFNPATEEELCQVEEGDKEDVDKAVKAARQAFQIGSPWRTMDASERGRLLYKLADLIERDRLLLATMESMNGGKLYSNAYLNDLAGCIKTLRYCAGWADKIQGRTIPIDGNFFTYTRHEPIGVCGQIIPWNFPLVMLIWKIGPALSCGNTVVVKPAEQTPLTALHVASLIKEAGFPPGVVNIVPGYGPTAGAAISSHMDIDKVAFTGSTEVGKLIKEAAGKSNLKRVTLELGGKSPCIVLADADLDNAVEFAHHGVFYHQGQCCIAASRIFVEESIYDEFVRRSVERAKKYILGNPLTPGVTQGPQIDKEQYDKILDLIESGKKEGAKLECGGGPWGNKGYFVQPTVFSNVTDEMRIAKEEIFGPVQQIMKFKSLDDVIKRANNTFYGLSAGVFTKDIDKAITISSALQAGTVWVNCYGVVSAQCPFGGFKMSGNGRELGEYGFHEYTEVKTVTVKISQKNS
# Assay: qHTS Assay for Inhibitors of Aldehyde Dehydrogenase 1 (ALDH1A1);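 as to activity, negative = inhibition: plate controls were no enzyme wells and a reference inhibitor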
# Conditions: Purified ALDH1A1, NADH fluorescence, propionaldehyde substrate; series mostly up to 75.3 µM; activity, negative = inhibition: at the top concentration
# Potency is read from the fitted curve at half-maximal effect; tags tell the direction and shape of the fitted curve.
SMILES,Potency,"activity, negative = inhibition"
O=C(c1ccco1)N1CCN(CC2CC3C=CC2C3)CC1 (centres undefined),"inconclusive [inhibitor, single point]",–
Cc1cc(CNC(=O)c2ccc3c(c2)OCO3)c2ccccc2n1,"inconclusive [inhibitor, single point]",–
Cc1ccc([N+](=O)[O-])cc1N/C=C/C(=O)c1ccco1,active: 22.4 µM,–
Cc1ccc(NC(=O)CSc2n[nH]c(C)c2[N+](=O)[O-])cc1,–,inactive: 10.2%
CC(c1ccc(F)cc1)n1c(-c2cccs2)n[nH]c1=S (centres undefined),"inconclusive [inhibitor, partial curve]",–
N#C/C(=C(/N)Sc1ccc(N)cc1)c1ccccc1C(F)(F)F,"inconclusive [inhibitor, single point]",–
O=C(O)c1sc2ncccc2c1OCc1ccccc1,"inconclusive [inhibitor, single point]",–
O=C(CCCCCn1c(=O)[nH]c2ccsc2c1=O)NCc1cccs1,–,inactive: 4.23%
COc1cccc(C(c2sc3ncnn3c2O)N2CCN(C(=O)c3ccco3)CC2)c1 (centres undefined),–,inactive: 6.55%
COC(=O)c1cc(NC(=S)Nc2cc(Cl)cc(Cl)c2)cc(C(=O)OC)c1,"inconclusive [inhibitor, partial curve]",–
Cc1nc(-c2ccccc2)sc1-c1nc(-c2ccncc2)ncc1S(=O)(=O)c1ccccc1,"inconclusive [inhibitor, single point]",–
O=C(CCS(=O)(=O)c1ccccc1)Nc1ccc(-c2nc3ccccc3s2)cc1,"inconclusive [inhibitor, partial curve]",–
CCOC(=O)C1=C(O)C(Nc2nc3ccccc3s2)(C(F)(F)F)N=C1C (centres undefined),"inconclusive [inhibitor, single point]",–
COc1cc(C(=O)NC(CCSC)C(=O)OCc2cc([N+](=O)[O-])cc3c2OCOC3)cc(OC)c1OC (centres undefined),"inconclusive [inhibitor, partial curve]",–
COc1cc(C(=S)N2CCCC2)ccc1OS(=O)(=O)c1ccc(NC(C)=O)cc1,"inconclusive [inhibitor, partial curve]",–
CC(C)[C@H](NS(=O)(=O)c1ccc2c(c1)OCCO2)C(=O)OCC(=O)Nc1cccc(Cl)c1Cl,"inconclusive [inhibitor, single point]",–
Cc1nc(NCC2CCCO2)c2nnn(Cc3ccccc3)c2n1 (centres undefined),active: 22.4 µM,–
CN(C)S(=O)(=O)c1cccc(NC(=S)Nc2cccc3cnccc23)c1,active: 7.94 µM,–
CCOC(=O)CSc1nnc(CNc2cccc(Cl)c2)n1-c1ccccc1,"inconclusive [inhibitor, partial curve]",–
